Data taken from US20230235012A1 (ALPINE IMMUNE SCIENCES, published 2023).

Target: T1, human PD-L1, full-length, expressed on transfected cells (human, UniProt Q9NZQ7)
T1 construct: whole, on cells; also called CD274; B7-H1
Test: flow cytometry, transfected cells

T1 sequence (Q9NZQ7 19-290): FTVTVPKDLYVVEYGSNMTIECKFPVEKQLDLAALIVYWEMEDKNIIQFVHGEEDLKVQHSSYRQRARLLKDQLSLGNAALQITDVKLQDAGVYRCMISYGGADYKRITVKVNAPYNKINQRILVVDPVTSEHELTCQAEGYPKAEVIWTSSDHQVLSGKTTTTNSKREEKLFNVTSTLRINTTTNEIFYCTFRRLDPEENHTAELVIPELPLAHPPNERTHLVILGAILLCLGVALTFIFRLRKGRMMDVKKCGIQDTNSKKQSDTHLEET

- MFI: 2970 MFI
B1: stacked Fc fusion: Domain 1 ICOSL WT / Domain 2 CD80 WT / Fc (Fc fusion)
chain: DTQEKEVRAMVGSDVELSCACPEGSRFDLNDVYVYWQTSESKTVVTYHIPQNSSLENVDSRYRNRALMSPAGMLRGDFSLRLFNVTPQDEQKFHCLVLSQSLGFQEVLSVEVTLHVAANFSVGGGGSGGGGSGGGGSVIHVTKEVKEVATLSCGHNVSVEELAQTRIYWQKEKKMVLTMMSGDMNIWPEYKNRTIFDITNNLSIVILALRPSDEGTYECVVLKYEKDAFKREHLAEVTLSVKADFPTPSISDFEIPGGGGSGGGGSAAA[human IgG1 Fc with C220S R292C N297G V302C (EU numbers) not spelt out]
